IC50 is the fitted dose that halves viability relative to control wells, and lower means more sensitive; a fit beyond the top or the lowest dose is shown as a bound at that dose. AUC, from the same fit, is the share of area under the viability curve across the 256-fold dose range; values near 1 show little effect. For some assays here: Any top dose called inferred is not printed in the source and was worked back from the curve model. For some assays here: Where an entry number is given, a second screen of the drug exists; the two often differ.
Key:
Assay in all cases: Viability of human cancer cell lines after 72 h of drug (GDSC screen)
[1] = compound: Nc1ccn([C@@H]2O[C@H](CO)[C@@H](O)C2(F)F)c(=O)n1 [Gemcitabine]; conditions: top dose 1.024 µM
Method: (§1)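 Human cancer cell lines in 384-well plates, medium with 10% serum, drug for 72 h over a 256-fold dose range (nine 2-fold or five 4-fold steps up to the top dose). Adherent lines were fixed and stained with the nucleic acid dye Syto60, suspension lines read with resazurin; signal relative to control wells, capped at 0 and 100%. One two-parameter sigmoid per drug and line, fitted in a mixed model over all curves with the slope shared within a line.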

[2] = compound: CC(O)(CS(=O)(=O)c1ccc(F)cc1)C(=O)Nc1ccc(C#N)c(C(F)(F)F)c1 [Bicalutamide]; conditions: top dose inferred
Method: as §1

[3] = compound: O=S(=O)(c1ccccc1)N(CC(F)(F)F)c1ccc(C(O)(C(F)(F)F)C(F)(F)F)cc1 [T0901317]; conditions: top dose 10.24 µM; top dose inferred
Method: as §1

[4] = compound: CC(C)c1ccccc1Cc1cc(C(=O)Nc2ccc(S(=O)(=O)c3ccccc3C(C)(C)C)cc2)c(O)c(O)c1O [TW-37]; conditions: top dose 5 µM
Method: as §1

[5] = compound: C/C(O)=C(\C#N)C(=O)Nc1cc(Br)ccc1Br [LFM-A13]; conditions: top dose 16 µM; top dose inferred
Method: as §1

[6] = compound: S=C(NCc1ccc2c(c1)OCO2)N1CCN(c2ncnc3c2oc2ccccc23)CC1 [MP470]; conditions: top dose 20 µM; top dose inferred
Method: as §1

[7] = compound: CCNC(=O)c1noc(-c2cc(C(C)C)c(O)cc2O)c1-c1ccc(CN2CCOCC2)cc1 [AUY922]; conditions: top dose 0.256 µM; top dose inferred
Method: as §1

[8] = compound: Cc1ccc(Nc2cc(-c3cccc(N4C(=O)c5ccccc5C4=O)c3)ncn2)cc1NS(C)(=O)=O [KIN001-270]; conditions: top dose 20 µM; top dose inferred
Method: as §1

[9] = compound: Cc1cn(-c2cc(NC(=O)c3ccc(C)c(Nc4nccc(-c5cccnc5)n4)c3)cc(C(F)(F)F)c2)cn1 [Nilotinib]; conditions: top dose 2 µM
Method: as §1

[10] = top dose 1.024 µM, screen: GDSC drug entry 150
[11] = top dose 10 µM, screen: GDSC drug entry 1502

| Cell Line | AUC [1] | IC50 [1] | AUC [2, 10] | IC50 [2, 10] | AUC [2, 11] | IC50 [2, 11] | AUC [3] | IC50 [3] | AUC [4] | IC50 [4] | AUC [5] | IC50 [5] | AUC [6] | IC50 [6] | AUC [7] | IC50 [7] | AUC [8] | IC50 [8] | AUC [9] | IC50 [9] |
| --- | --- | --- | --- | --- | --- | --- | --- | --- | --- | --- | --- | --- | --- | --- | --- | --- | --- | --- | --- | --- |
| BHT-101 (thyroid, adherent) | 0.562 | 0.0949 µM | 0.985 | > 1.02 µM | 0.948 | > 10 µM | 0.967 | > 10.2 µM | 0.361 | 0.127 µM | 0.954 | > 16 µM | 0.931 | > 20 µM | 0.631 | 0.0372 µM | 0.956 | > 20 µM | 0.719 | 0.534 µM |
| YKG-1 (glioma, adherent) | 0.15 | 0.00514 µM | 0.987 | > 1.02 µM | 0.973 | > 10 µM | 0.984 | > 10.2 µM | 0.351 | 0.12 µM | 0.986 | > 16 µM | 0.884 | > 20 µM | 0.423 | 0.00981 µM | 0.955 | > 20 µM | 0.97 | > 2 µM |
| M14 (melanoma, adherent) | 0.649 | 0.17 µM | 0.983 | > 1.02 µM | 0.978 | > 10 µM | 0.973 | > 10.2 µM | 0.802 | 2.62 µM | 0.982 | > 16 µM | 0.977 | > 20 µM | 0.837 | 0.185 µM | 0.983 | > 20 µM | 0.986 | > 2 µM |
| NCI-H2023 (lung adenocarcinoma, adherent) | 0.596 | 0.125 µM | 0.949 | > 1.02 µM | 0.964 | > 10 µM | 0.979 | > 10.2 µM | 0.502 | 0.316 µM | 0.925 | > 16 µM | 0.981 | > 20 µM | 0.668 | 0.0533 µM | 0.979 | > 20 µM | 0.954 | > 2 µM |
| HO-1-u-1 (head and neck, adherent) | 0.616 | 0.132 µM | 0.987 | > 1.02 µM | 0.978 | > 10 µM | 0.983 | > 10.2 µM | 0.572 | 0.486 µM | 0.986 | > 16 µM | 0.949 | > 20 µM | 0.745 | 0.0778 µM | 0.982 | > 20 µM | 0.966 | > 2 µM |
| WM793B (melanoma, adherent) | 0.241 | 0.0104 µM | 0.984 | > 1.02 µM | 0.958 | > 10 µM | 0.982 | > 10.2 µM | 0.514 | 0.342 µM | 0.963 | > 16 µM | 0.974 | > 20 µM | 0.281 | 0.00356 µM | 0.972 | > 20 µM | 0.956 | > 2 µM |
| LS-180 (large intestine, adherent) | 0.131 | < 0.004 µM | 0.942 | > 1.02 µM | 0.977 | > 10 µM | 0.979 | > 10.2 µM | 0.84 | 4.19 µM | 0.979 | > 16 µM | 0.904 | > 20 µM | 0.655 | 0.046 µM | 0.984 | > 20 µM | 0.983 | > 2 µM |
| MES-SA (uterus, adherent) | 0.176 | 0.00834 µM | 0.991 | > 1.02 µM | 0.99 | > 10 µM | 0.981 | > 10.2 µM | 0.318 | 0.106 µM | 0.991 | > 16 µM | 0.962 | > 20 µM | 0.478 | 0.014 µM | 0.991 | > 20 µM | 0.992 | > 2 µM |
| SKG-IIIa (cervix, adherent) | 0.715 | 0.323 µM | 0.98 | > 1.02 µM | 0.95 | > 10 µM | 0.982 | > 10.2 µM | 0.591 | 0.605 µM | 0.972 | > 16 µM | 0.917 | > 20 µM | 0.698 | 0.0704 µM | 0.982 | > 20 µM | 0.983 | > 2 µM |
| G-402 (soft tissue, adherent) | 0.168 | 0.00415 µM | 0.977 | > 1.02 µM | 0.945 | > 10 µM | 0.956 | > 10.2 µM | 0.419 | 0.174 µM | 0.947 | > 16 µM | 0.892 | > 20 µM | 0.581 | 0.0287 µM | 0.951 | > 20 µM | 0.877 | > 2 µM |
| TOV-112D (ovary, adherent) | 0.052 | < 0.004 µM | 0.967 | > 1.02 µM | 0.928 | > 10 µM | 0.944 | > 10.2 µM | 0.437 | 0.211 µM | 0.981 | > 16 µM | 0.728 | 5.57 µM | 0.452 | 0.0119 µM | 0.921 | > 20 µM | 0.984 | > 2 µM |
| NCI-H2087 (lung adenocarcinoma, semi-adherent) | 0.167 | 0.00561 µM | 0.969 | > 1.02 µM | 0.962 | > 10 µM | 0.975 | > 10.2 µM | 0.576 | 0.511 µM | 0.965 | > 16 µM | 0.923 | > 20 µM | 0.58 | 0.0269 µM | 0.975 | > 20 µM | 0.983 | > 2 µM |
| KYSE-510 (oesophagus, adherent) | 0.017 | < 0.004 µM | 0.991 | > 1.02 µM | 0.977 | > 10 µM | 0.992 | > 10.2 µM | 0.409 | 0.185 µM | 0.992 | > 16 µM | 0.977 | > 20 µM | 0.427 | 0.0105 µM | 0.992 | > 20 µM | 0.987 | > 2 µM |

From the supplement of paper PMC4967469
